Reference: the supplement of paper PMC3334620
Whole data set: some 33,000 sequences, median “E-score (-0.5 to 0.5)” near -0.013, cut for the highest 2% near 0.3. The list shows a part of the results.

target: T1, Msn1 (UniProt P22148); assay: PBM E-score (8-mer binding enrichment) (E-score (-0.5 to 0.5)); higher = stronger / more preferred TF binding; most listed sequences are background and not binding sites; settings: protein concentration: 200 nM; construct: GST-full length
T1 sequence: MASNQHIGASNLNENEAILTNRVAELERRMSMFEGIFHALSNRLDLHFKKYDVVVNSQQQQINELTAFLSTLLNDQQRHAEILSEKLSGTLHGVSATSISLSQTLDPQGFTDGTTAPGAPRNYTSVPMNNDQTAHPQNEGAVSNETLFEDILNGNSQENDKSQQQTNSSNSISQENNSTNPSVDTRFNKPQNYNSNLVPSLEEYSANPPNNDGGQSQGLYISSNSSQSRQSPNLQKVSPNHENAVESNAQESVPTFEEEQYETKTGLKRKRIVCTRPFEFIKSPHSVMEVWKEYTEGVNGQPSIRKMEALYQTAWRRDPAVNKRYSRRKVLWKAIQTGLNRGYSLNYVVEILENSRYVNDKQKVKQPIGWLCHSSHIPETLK
Method in brief: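 Detection of bound protein used fluorescent anti-GST, with scans normalised by masliner. The proteins were GST-tagged yeast transcription factors applied at about 100-200 nM to universal all-10-mer Agilent arrays made double-stranded by primer extension. Each ungapped eight-base word, pooled with its reverse complement, was scored with an E-score from the Universal PBM Analysis Suite.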

| Sequence | PBM E-score |
| --- | --- |
| CGCCGTTC | 0.132 |
| CATATATA | 0.148 |
| GAGCTACA | -0.197 |
| AGGGACCC | -0.214 |
| AGTAAAGC | 0.00604 |
| TCCTTTCA | -0.0192 |
| AGGTGTCC | 0.263 |
| AAGAAAGT | 0.166 |
| ACTCTATA | 0.0909 |
| CATCGTAA | -0.0235 |
| GGTCATCA | -0.0166 |
| ACTCACGC | -0.0957 |
| AAATGCGC | 0.208 |
| GTGCAATA | -0.0751 |
| AACCGTTA | -0.0453 |
| GACCCATA | -0.155 |
| GATAATGA | 0.2 |
| CCACTACA | -0.133 |
| CATTGCTA | 0.138 |
| CCTCTTAA | 0.0412 |
| AGGGAGAA | -0.259 |
| CAACCAAA | 0.209 |
| ACAAGTAG | -0.0149 |
| AACTCTAC | -0.169 |
| CGTAAGTA | 0.0282 |

| Sequence | PBM E-score |
| --- | --- |
| AGATAAGC | -0.0908 |
| CTCACATC | -0.0961 |
| CCCAAAGG | -0.0925 |
| AAGGTCTG | -0.071 |
| ATTTCGCA | 0.201 |
| CCAATTCG | -0.0466 |
| AGTAAGCC | -0.197 |
| ATTGTGGG | 0.107 |
| GCAGTCCA | -0.0815 |
| AGCGCGAT | -0.0183 |
| GACCGCAC | -0.142 |
| CTTATCGC | 0.0123 |
| TGGCACCA | -0.0529 |
| ACGGTTCC | 0.0872 |
| ATGCGCCA | -0.0261 |
| AGACGTTC | 0.0892 |
| ACCTAAAG | 0.0937 |
| CCAAACCG | -0.101 |
| GTCAAGAC | 0.067 |
| GCTCCGAC | -0.0368 |
| ATTCTGCA | 0.0782 |
| ATCTGGGC | -0.24 |
| ATCGACTA | -0.122 |
| CAAGATGA | -0.175 |
| ACCCAAGG | -0.0287 |

| Sequence | PBM E-score |
| --- | --- |
| TAACGGGA | -0.0643 |
| TATCAGCA | 0.138 |
| CTGTAATC | 0.00924 |
| AGAGATCA | -0.119 |
| ATCGAAAT | -0.151 |
| ACGGAACT | 0.068 |
| CAAGTTCG | -0.0423 |
| ACTCCGTA | -0.0523 |
| AGACCAGC | -0.172 |
| ATATGTAA | 0.131 |
| ATAATGGG | -0.0747 |
| CAAGATAA | 0.324 |
| CGGACGAC | -0.0607 |
| CTAAACTC | 0.0416 |
| TCATTACA | 0.209 |
| ATTACATA | -0.0111 |
| AGATTACT | 0.00355 |
| CGGGCAGA | 0.065 |
| CACTCAAA | 0.196 |
| GAACAACA | -0.0172 |
| AGAAGACG | 0.118 |
| CTTTCTAC | -0.079 |
| CAGTGCGG | -0.0726 |
| TGAATGAA | 0.0496 |
| CGACTTTA | 0.201 |

| Sequence | PBM E-score |
| --- | --- |
| ATATCAGC | -0.0193 |
| GGGCAATA | -0.0349 |
| AACGTGTA | -0.0696 |
| AAAGACGG | -0.0787 |
| GCGGTGTA | -0.00829 |
| CTAGAAAG | 0.0102 |
| AGATACCT | -0.0491 |
| CAGGTTCC | -0.265 |
| AGCTCAGA | -0.147 |
| ACTTGGCC | -0.125 |
| GGTCTTAC | -0.0649 |
| ACGCACCT | -0.208 |
| AATATGGA | 0.118 |
| CACCCCGC | -0.0608 |
| ATACAGCC | -0.0211 |
| ATTGAGGC | -0.0229 |
| CATGGTTC | 0.087 |
| CTTGTGAC | -0.0656 |
| ATGGACCG | -0.16 |
| CCATACCA | 0.0887 |
| CATCAATC | -0.122 |
| AGTGTGTG | -0.125 |
| GAGGAACC | -0.0449 |
| AACTGGAA | 0.00546 |
| CGCCTTCA | -0.296 |

| Sequence | PBM E-score |
| --- | --- |
| CCGCTTGC | -0.163 |
| TGCTAGCA | -0.107 |
| GCACACTA | -0.0794 |
| CGCTTCTA | 0.135 |
| CCCGAAGG | -0.0932 |
| GCGTTTAA | -0.00948 |
| CCGCCTTC | -0.343 |
| AAGTGCGA | -0.327 |
| CCACTGTC | -0.167 |
| AGTTAAAG | 0.0697 |
| ACCATCTG | -0.162 |
| CCTTCCTA | -0.309 |
| CCAGGAAA | -0.0478 |
| AGAACGCG | 0.086 |
| CGCGCGAA | 0.132 |
| AAGCGAAA | 0.00534 |
| ACATTCCG | 0.252 |
| GACGGCGA | -0.144 |
| AACGAAGT | -0.0723 |
| CAGGGCTA | -0.166 |
| CTCAGCAA | 0.0422 |
| AACACATG | 0.07 |
| AATTAAAG | 0.167 |
| AGTCTATA | 0.0264 |
| ACCGTGGC | -0.22 |

| Sequence | PBM E-score |
| --- | --- |
| ATGATGAC | 0.086 |
| AATCAAAG | 0.0578 |
| ATCGTTGC | -0.138 |
| ATTGAACG | -0.00389 |
| CTGGTAAA | 0.0379 |
| ACGCTTTG | -0.0413 |
| GCTATCCC | -0.0904 |
| AGCGTAAG | -0.124 |
| AAGCAAAT | 0.111 |
| ATCACGAG | -0.188 |
| AGGACCAG | -0.141 |
| CAGCCTAG | -0.107 |
| CGCGGACG | 0.181 |
| GGCACAGA | -0.167 |
| AGCCGCCT | -0.121 |
| ACTCTGAT | -0.175 |
| ACTGGCGC | -0.107 |
| CCCTTCTA | -0.0353 |
| GGTTGCCA | 0.00561 |
| GCAGCGAC | -0.11 |
| ACAAGATA | 0.189 |
| CGCCAACG | -0.126 |
| AGCCCCCG | -0.417 |
| GGACGGAA | 0.0587 |
| AGCTAGGC | -0.0292 |

| Sequence | PBM E-score |
| --- | --- |
| ACGTCCCA | 0.0941 |
| CATGTCGC | 0.237 |
| GGTACGGA | 0.0921 |
| AGGGTAGA | -0.229 |
| ACTGCGAA | -0.198 |
| ATGACTAC | -0.193 |
| CTAAGCGA | -0.0865 |
| GCTCCTAC | -0.23 |
| GCGCAGCA | -0.29 |
| CCAGTAAG | 0.135 |
| GGAAGGTA | -0.0362 |
| GAGTAACC | -0.092 |
| GAGGGGCA | -0.245 |
| CTGTATGC | 0.0129 |
| GGGGGGAA | -0.389 |
| GAAAGATC | -0.104 |
| CAATGAGG | -0.283 |
| AGTGCTAT | -0.0763 |
| CAATAGGC | -0.0431 |
| AAGGCGCA | -0.0267 |
| CCAATGCA | -0.0756 |
| AGAGAAAC | 0.00425 |
